According to paper PMC4336329 (PLoS ONE, 2015):
About 2,200 (0.71%) of roughly 310,000 compounds showed an effect of 50% or more. The effect is printed as a negative number. This is one part of the list.

What follows are compounds tested against human ether-à-go-go-related gene (hERG) potassium channel (human, UniProt Q12809) (assay: primary screen, population patch clamp on CHO cells stably expressing hERG).
Chain of human ether-à-go-go-related gene (hERG) potassium channel (Q12809 whole entry, looked up): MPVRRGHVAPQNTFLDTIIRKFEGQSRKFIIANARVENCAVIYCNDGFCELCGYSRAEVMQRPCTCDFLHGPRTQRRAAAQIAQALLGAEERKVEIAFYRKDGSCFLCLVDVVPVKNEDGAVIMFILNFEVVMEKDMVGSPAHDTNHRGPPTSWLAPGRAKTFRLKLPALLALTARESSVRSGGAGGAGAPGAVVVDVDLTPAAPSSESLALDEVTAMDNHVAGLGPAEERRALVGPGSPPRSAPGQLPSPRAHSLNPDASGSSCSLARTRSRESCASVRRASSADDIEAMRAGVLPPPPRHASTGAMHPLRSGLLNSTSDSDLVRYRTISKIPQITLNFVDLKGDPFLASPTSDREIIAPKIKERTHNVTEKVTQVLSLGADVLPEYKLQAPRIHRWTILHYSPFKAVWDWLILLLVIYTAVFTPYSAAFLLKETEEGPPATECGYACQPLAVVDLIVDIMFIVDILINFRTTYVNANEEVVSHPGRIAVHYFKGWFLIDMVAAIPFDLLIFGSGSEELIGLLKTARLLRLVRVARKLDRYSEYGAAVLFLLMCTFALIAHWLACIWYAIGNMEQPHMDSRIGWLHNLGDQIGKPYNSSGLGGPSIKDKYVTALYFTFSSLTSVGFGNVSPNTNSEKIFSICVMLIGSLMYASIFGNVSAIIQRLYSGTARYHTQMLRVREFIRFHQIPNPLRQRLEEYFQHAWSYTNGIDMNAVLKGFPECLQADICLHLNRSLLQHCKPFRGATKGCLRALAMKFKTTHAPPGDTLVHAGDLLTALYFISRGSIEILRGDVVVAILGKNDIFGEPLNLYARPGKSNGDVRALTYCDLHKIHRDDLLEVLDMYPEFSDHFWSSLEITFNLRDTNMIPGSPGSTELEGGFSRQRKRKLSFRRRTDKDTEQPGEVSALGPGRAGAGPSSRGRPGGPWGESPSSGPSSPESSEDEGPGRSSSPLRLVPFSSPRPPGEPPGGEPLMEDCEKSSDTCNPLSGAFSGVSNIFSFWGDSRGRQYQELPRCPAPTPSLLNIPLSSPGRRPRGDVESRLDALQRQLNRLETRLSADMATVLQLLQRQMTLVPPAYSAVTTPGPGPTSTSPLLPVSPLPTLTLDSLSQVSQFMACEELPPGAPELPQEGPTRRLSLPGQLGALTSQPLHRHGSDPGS

Structure (SMILES) | hERG current change (%, negative = inhibition) at 1uM [%]
CC(=O)OC1COC(n2c(O)c(N=NC(N)=S)c3ccccc32)C(OC(C)=O)C1OC(C)=O (centres unmarked) | 16.7
O=C(Oc1ccc(Br)cc1)c1n[nH]c(=O)c2ccccc12 | 1.13
CCOC(=O)c1c(-c2ccc(OC)cc2)csc1/N=C/N(C)C | 7.88
Cc1oncc1-c1cn2ccccc2n1 | 6.93
NS(=O)(=O)c1ccc2nc(NC(=O)c3ccc(Br)o3)sc2c1 | 6.62
COc1cc(/C=C2/SC(=S)N(Cc3ccccc3)C2=O)cc(OC)c1O | 10.7
Cc1ccnc(-n2c(C)nc3ccccc3c2=O)c1 | 9.28
CSc1ccc(/C=C/C(=O)c2ccc(NC(=O)C(C)C)cc2)cc1 | 3.02
O=C(CCS(=O)(=O)c1ccccc1)Nc1nc(-c2cccs2)cs1 | -3.34
CCCC(=O)C1=C(O)C(C(=O)OC)C(C)(C)CC1=NC(C)(C)C (centres unmarked) | 3.44
COc1ccc(OC)c(Nc2nc3ccccc3n3cnnc23)c1 | 7.2
Cc1ccc(C2(CC(=O)N3CCCC3)CCOC(C(C)C)C2)cc1 (centres unmarked) | 2.04
CC1=C(C(=O)OC(C)C)C(c2cccs2)NC(=S)N1 (centres unmarked) | 5.54
COc1cccc(NC(=O)Cn2c(=O)oc3cc(S(=O)(=O)N4CCCC4)ccc32)c1 | 11.7
CC(=O)Nc1ccc(OCC(O)CN2CCN(c3ccc(F)cc3)CC2)cc1 (centres unmarked) | -0.53
COc1ccc(CC(=O)OCC(=O)N2CCCC(C)C2)cc1 (centres unmarked) | 16.6
CC1=CC(=C2C(=O)c3ccccc3C2=O)C=C(C)N1C | 5.54
C/C=C\C=C/C(=O)Nc1cccc(C2=NOC3(C2)C[C@@H](C(N)=O)N(C(=O)[C@H]2CCC(=O)N2)C3)c1 (some centres unmarked) | 15
O=C1c2ccccc2NC(c2ccc(-c3ccc(Br)cc3)o2)N1O (centres unmarked) | -7.19
CCOC(=O)C1=C(COC(=O)c2cccs2)NC(=O)NC1C (centres unmarked) | 14.1

Structure (SMILES) | hERG current change (%, negative = inhibition) at 1uM [%]
Cc1cccc(N2C(=O)CC(N3CCN(Cc4ccc5c(c4)OCO5)CC3)C2=O)c1 (centres unmarked) | 1.76
c1ccc2c(c1)C(=NC1CCCCC1)NC2=NC1CCCCC1 | 2.62
Fc1ccc(OCc2nn3cnnc3s2)cc1 | 7.16
CNC(=O)CSc1nnc(-c2cccc(S(=O)(=O)N3CCOCC3)c2)n1-c1ccc(F)cc1 | 11.4
c1ccc2c(c1)CC(N1CCCCC1)c1ccccc1N2 (centres unmarked) | -0.156
CC(O)c1nc2ccccc2n1C/C=C/c1ccccc1 (centres unmarked) | -3.88
COc1ccc(C(=O)NC(=S)Nc2ccc(S(=O)(=O)Nc3cc(C)on3)cc2)cc1OC | 11.1
COc1ccc(Cc2nccc3cc(OC)c(OC)cc23)cc1OC.Cl | 10.8
Cc1ccc(NC(=O)N(C2=NCC(C)S2)c2ccccc2)cc1 (centres unmarked) | 10.9
COC(=O)c1ccc(CNC(=O)C2CCC(=O)N(Cc3cccc(F)c3)C2)cc1 (centres unmarked) | 7.94
COc1ccc(NC(=O)c2cc(C)on2)cc1OC | -0.779
Cc1nc2ccc(Br)cc2c2c1CC(CO)O2 (centres unmarked) | 15.9
CSc1ccc(/C=c2\s/c(=C\C(=O)C(C)(C)C)n(CC(=O)NCCC3=CCCCC3)c2=O)cc1 | -3.41
O=C(c1ccco1)N1CCN(Cc2cc(=O)oc3cc(O)ccc23)CC1 | -45
COc1cc(=O)[nH]c(=O)n1CC(=O)c1ccccc1 | 8.76
O=S(=O)(Cc1ccccc1)N1CCCCC1 | 12.3
COC(=O)C1=CN(c2cccc(C(F)(F)F)c2)C=C(C(=O)OC)C1c1ccc(O)c(OC)c1 | 9.11
COc1cc(C(=O)NC(=S)Nc2ccc([N+](=O)[O-])cc2)cc(OC)c1OC | 7.73
Cc1cc(C)n(-c2nc3ccccc3s2)n1 | -2.02
COc1ccccc1C(=O)NC(=O)COC(=O)c1cccc(C)c1O | 21.3

Structure (SMILES) | hERG current change (%, negative = inhibition) at 1uM [%]
CCCCC(=O)Nc1ncc([N+](=O)[O-])s1 | 1.72
O=[N+]([O-])c1cc(C(F)(F)F)ccc1Oc1cccnc1[N+](=O)[O-] | -7.56
C=CCOC(=O)C1=C[C@H](c2coc3ccccc3c2=O)C[C@H](OCc2ccc(CO)cc2)O1 | -13.2
Cc1ccc(-c2c3c(=O)n(C)c(=O)n(C)c3cn2Cc2cccnc2)cc1 | 1.2
CCC(C)c1ccccc1NC(=O)C1CCCO1 (centres unmarked) | 13.2
COc1ccc(CC(=O)OCC(=O)c2ccc(OC)c(OC)c2)cc1 | -0.414
CCOC(=O)C(NC(C)=O)C(=O)Nc1ccc(C(C)(C)C)cc1 (centres unmarked) | 6.96
CCOCCOC(=O)c1ccc(-n2cncn2)nc1 | 3.27
O=C1c2ccccc2C(=O)N1CCN1CCOCC1 | 12.3
O=C(OCCN1C(=O)c2ccccc2C1=O)c1ccccc1 | 2.43
Cc1ccc2c(CN(C)Cc3cccc(F)c3)cc(=O)oc2c1C | 13.4
Cc1ccc(C(=O)NCCNC(=O)c2ccc(F)cc2)cn1 | 7.7
COc1ccc(NC(=O)C(=O)NCCC2CCCCN2S(=O)(=O)c2cccs2)cc1 (centres unmarked) | 10.8
COc1ccc(-c2csc3ncnc(N4CCN(c5ccccc5O)CC4)c23)cc1 | 13.4
COc1cnn(-c2ccccc2)c(=O)c1N(C)C | 5.94
CCOc1ccc(N2C=Nc3ccc(OCC)cc3C2)cc1 | -18.3
CS(=O)(=O)Nc1ccc(-c2ccc(/C=C3\SC(N)=NC3=O)o2)cc1 | 8.58
Oc1c(C(c2cccs2)N2CCOCC2)sc2ncnn12 (centres unmarked) | 10.2
CC(=O)c1ccc(NC(=O)C(C)OC(=O)COc2ccc(C#N)cc2)cc1 (centres unmarked) | -0.605
